PubChem BioAssay AID624417 (National Center for Advancing Translational Sciences (NCATS), 2012)
About 6,400 (1.6%) of roughly 410,000 compounds were called active. The shares of active, inactive and inconclusive entries below differ from those in the screen. Calls come from the whole dose curve; as a rule, active = well fitted inhibition curve with a large enough effect; inconclusive = small, poorly fitted or top-dose-only effect; inactive = no such curve, though single readings can be large or run the other way. Where the call is inconclusive, the potency comes from a doubtful curve fit.
% is set by controls: 0 for no effect and ±100 for the full control effect; potency is the fitted concentration of half-maximal effect; tags give direction and shape of the fitted curve.
Note: nearly all actives have a fitted effect of over 55% in size.

Each compound was assayed against Glucagon-like peptide 1 receptor (Homo sapiens) (UniProt P43220) (assay: qHTS of GLP-1 Receptor Inverse Agonists (Inhibition Mode)). Conditions: HEK293 GLP-1R CRE-luciferase, luminescence, 24 h, GLP-1R form is constitutively active; activity change, negative = inhibition: at 38.3 µM (top of the series) unless noted.
Sequence of UniProt P43220 (P43220 whole entry, looked up): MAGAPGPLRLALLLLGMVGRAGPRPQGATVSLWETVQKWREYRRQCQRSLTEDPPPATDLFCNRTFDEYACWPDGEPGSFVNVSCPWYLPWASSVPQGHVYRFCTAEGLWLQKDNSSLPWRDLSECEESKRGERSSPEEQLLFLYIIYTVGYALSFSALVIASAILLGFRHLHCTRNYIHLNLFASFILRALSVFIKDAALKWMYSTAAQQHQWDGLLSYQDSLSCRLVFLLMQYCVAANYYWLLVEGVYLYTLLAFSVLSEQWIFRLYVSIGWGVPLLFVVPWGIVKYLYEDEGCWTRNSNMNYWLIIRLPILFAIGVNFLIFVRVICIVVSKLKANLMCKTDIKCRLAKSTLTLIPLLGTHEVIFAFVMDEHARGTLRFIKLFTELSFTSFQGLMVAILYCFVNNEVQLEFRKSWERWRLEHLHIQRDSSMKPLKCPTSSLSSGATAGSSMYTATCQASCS
Outline: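 HEK293 cells stably co-expressing constitutively active GLP-1R and a cAMP-responsive luciferase reporter were seeded in DMEM with 10% Nu serum, given compounds after 12 h, and incubated 24 h at 37 deg C. Luminescence was then read.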
In the case of `O=C(NC1C2CC3CC(C2)CC1C3)c1ccc2c(c1)OCO2` (configuration not stated), the Potency is reported as inconclusive: 4.47 µM [inhibitor, partial curve, poor fit].
In the case of `O=C(/C=C\c1ccco1)c1ccc(NC(=O)c2ccco2)cc1`, the Potency is reported as “inactive”.
With `O=C(CSc1nnc(Cc2cccs2)n1-c1ccccc1)NCc1ccc2c(c1)OCO2` the Potency was inconclusive: 1.58 µM [inhibitor, full curve, poor fit].
For `Cc1cc(C)cc(N=Cc2ccc([N+](=O)[O-])s2)c1`, the Potency was “inactive”.
For `Cc1cc(C)n(CC(O)COc2ccc(C(C)(C)C)cc2)n1` (configuration not stated), the Potency was inconclusive: 12.6 µM [inhibitor, partial curve, poor fit].
For `CC(=O)c1cccc(OCc2cc(C(=O)N(C)CCc3cnn(C)c3)no2)c1`, the Potency was “inactive”.
In the case of `CCN(CC)c1ccc(CC(=O)NC(C)Cc2ccccc2)cc1` (configuration not stated), the Potency is reported as inconclusive: 11.2 µM [inhibitor, partial curve, poor fit].
For `CCSc1nnc(NC(=O)c2c(-c3ccccc3Cl)noc2C)s1`, the Potency was inconclusive: 8.91 µM [inhibitor, partial curve, poor fit].
With `CC1CN(C(=O)c2cc(S(=O)(=O)N3CCN(c4ccccc4)CC3)ccc2Cl)CC(C)O1` (configuration not stated) the Potency was inconclusive: 28.2 µM [inhibitor, single point].
In the case of `OC(COCc1cccs1)CN1CCN(c2ccccc2Cl)CC1` (configuration not stated), the Potency is reported as “inactive”.
In the case of `CC(C)Sc1cc(N2CCOCC2)nc(-c2ccccc2)n1`, the Potency is reported as inconclusive: 20 µM [inhibitor, single point].
With `Cc1nn(Cc2cccc(C(=O)Nc3ccn(Cc4c(F)c(F)cc(F)c4F)n3)c2)c(C)c1[N+](=O)[O-]` the Potency was inconclusive: 28.2 µM [inhibitor, single point].
For `Cc1ccc(NC(=O)[C@@H]2CCCN2S(=O)(=O)c2ccc(Cl)cc2)cc1`, the Potency was inconclusive: 10 µM [inhibitor, partial curve, poor fit].
With `O=C(CSc1oc(-c2ccccc2)nc1S(=O)(=O)c1ccc(Br)cc1)c1ccccc1` the Potency was inconclusive: 28.2 µM [inhibitor, single point].
In the case of `CCCN(CCC)C(=O)C1CCC(CNS(=O)(=O)c2cccc3nsnc23)CC1` (configuration not stated), the Potency is reported as inconclusive: 8.91 µM [inhibitor, partial curve, poor fit].
In the case of `COCCCNC1=C(Cl)C(=O)c2ccccc2C1=O`, the Potency is reported as inconclusive: 28.2 µM [inhibitor, single point].
For `CSc1nnc(-c2ccccc2)c(-c2ccccc2)n1`, the Potency was inconclusive: 11.2 µM [inhibitor, partial curve, poor fit].
With `COc1ccc(C)cc1NC(=O)COc1cc(=O)n(C)c2ccccc12` the Potency was “inactive”.
With `O=C(c1ccccc1)N1CCN(C(=O)C23CC4CC(CC(C4)C2)C3)CC1` the Potency was inconclusive: 11.2 µM [inhibitor, partial curve].
In the case of `Cc1c(Br)cccc1NC(=O)C1(C)CCN1C(C)C` (configuration not stated), the Potency is reported as inconclusive: 11.2 µM [inhibitor, partial curve, poor fit].
In the case of `CCc1cc(C(=O)NNC(=S)Nc2cc(C)ccc2C)cs1`, the Potency is reported as “inactive”.
For `O=C1c2ccccc2NC(c2cccc(Cl)c2)N1N=C1CCCCCC1` (configuration not stated), the Potency was inconclusive: 28.2 µM [inhibitor, single point].
In the case of `CCN(C(=O)CSc1nc2ccccc2n1Cc1ccc(C(=O)OC)cc1)c1ccccc1`, the Potency is reported as “inactive”.
With `CC(Sc1ccsc1[N+](=O)[O-])C(=O)NCCc1ccc(Cl)cc1` (configuration not stated) the Potency was “inactive”.
With `O=C(NCCCCc1ccccc1)C12CN(Cc3ccccc3)CC1C(c1ccc([N+](=O)[O-])cc1)=NO2` (configuration not stated) the Potency was inconclusive: 12.6 µM [inhibitor, partial curve, poor fit].
`CC(C)NC(=O)c1ccc2c3n(nc2c1)-c1ccccc1CO3` was tested, and the Potency was inconclusive: 2.24 µM [inhibitor, full curve].
For `Cc1ccc(Oc2cc(NC(=O)CCCn3nc(C)c([N+](=O)[O-])c3C)cc([N+](=O)[O-])c2)cc1`, the Potency was inconclusive: 3.16 µM [inhibitor, full curve, poor fit].
`CCOc1ccccc1C1CC(c2cccc(NS(C)(=O)=O)c2)=NN1C(=O)c1ccccc1` (configuration not stated) was tested, and the Potency was inconclusive: 12.6 µM [inhibitor, single point].
With `CSCCC1NC(=O)N(CC(=O)Nc2cccc(S(=O)(=O)N3CCCCCC3)c2)C1=O` (configuration not stated) the Potency was inconclusive: 28.2 µM [inhibitor, single point].
`Cn1nnnc1SCCCNCc1cccc(OCc2ccccc2F)c1` was tested, and the Potency was “inactive”.
For `COC(=O)CSc1nc2cc(OC)ccc2n1C`, the Potency was “inactive”.
In the case of `O=C(Nc1ccccc1Cl)c1cc(C2CCCCN2C(=O)CCCc2ccccc2)on1` (configuration not stated), the Potency is reported as inconclusive: 20 µM [inhibitor, single point].
With `COc1ccc(-c2cn3cccnc3n2)cc1NC(=O)C1CCCC1` the Potency was “inactive”.
In the case of `COc1ccc(C(CNC(=O)c2cc3ccccc3cc2OC)N2CCCC2)cc1` (configuration not stated), the Potency is reported as inconclusive: 8.91 µM [inhibitor, partial curve, poor fit].
With `Cc1noc(C)c1COc1ccc(C(=O)NCCc2ccc(F)cc2)cc1` the Potency was inconclusive: 11.2 µM [inhibitor, single point].
With `NC(=O)CSc1nnc(NC(=O)C23CC4CC(CC(C4)C2)C3)s1` the Potency was “inactive”.
`CSc1ccc(CN2CCN(Cc3ccc([N+](=O)[O-])cc3)CC2)cc1` was tested, and the activity change, negative = inhibition was inconclusive: -32.3% [inhibitor] [at 7.66 µM].
For `O=C(c1cccs1)N1CCN=C1SCc1cccnc1`, the Potency was “inactive”.
For `CC(C)CN1CCNC(=O)C1CC(=O)NCCc1cnn(-c2ccccc2)c1` (configuration not stated), the Potency was “inactive”.
In the case of `CCCC(=O)Nc1nnc(-c2ccco2)s1`, the Potency is reported as “inactive”.
With `CCN1CCC2(CCN(C(=O)c3cc(COc4cc(C)ccc4C)on3)C2)C1` (configuration not stated) the Potency was inconclusive: 3.55 µM [inhibitor, partial curve, poor fit].
With `O=C(CN1CCN(c2ccccc2F)CC1)c1c[nH]c2ccc(F)cc12` the Potency was “inactive”.
With `CC(Sc1nnc(CN2CCCC2)n1Cc1ccccc1)C(=O)Nc1ccc(F)cc1` (configuration not stated) the Potency was inconclusive: 1.78 µM [inhibitor, partial curve, poor fit].
With `O=C(COc1ccccc1)NC(=S)N1CCc2ccccc21` the Potency was inconclusive: 28.2 µM [inhibitor, single point].
For `CNC(=S)N/N=C/c1cn(CCOc2ccc(OC)cc2)c2ccccc12`, the Potency was inconclusive: 3.16 µM [inhibitor, full curve].
For `Cc1[nH]ncc1Nc1c(C(C)C)cccc1C(C)C`, the Potency was inconclusive: 28.2 µM [inhibitor, single point].
For `COc1ccc2c(c1)C(C)=CC(C)(C)N2S(=O)(=O)c1ccc(Br)cc1`, the Potency was inconclusive: 2.24 µM [inhibitor, partial curve, poor fit].
In the case of `COC(=O)c1ccccc1NC(=O)c1noc2c1CC(C(C)(C)C)CC2` (configuration not stated), the Potency is reported as “inactive”.
For `O=C(NCCc1ccccc1)c1ccc(Cl)c(S(=O)(=O)N2CCOCC2)c1`, the Potency was inconclusive: 12.6 µM [inhibitor, partial curve, poor fit].
For `O=C(CSc1ncc(-c2ccccc2)n1CC1CCCO1)N1CCCCC1` (configuration not stated), the Potency was “inactive”.
In the case of `O=C1NC(=S)S/C1=C\C=C\c1ccc([N+](=O)[O-])o1`, the Potency is reported as inconclusive: 12.6 µM [inhibitor, single point].
`Nc1nc(/C=C/c2cccnc2)nc(-c2ccccc2O)n1` was tested, and the Potency was inconclusive: 2.24 µM [inhibitor, full curve, poor fit].
`C=C(C)Cn1c(=O)c2c(nc3n2CCN3c2cc(C)cc(C)c2)n(C)c1=O` was tested, and the Potency was “inactive”.
For `COc1cc(C2C(=O)N(C3CCCCCC3)CC(=O)N2Cc2ccccc2)ccc1OC(C)C` (configuration not stated), the Potency was inconclusive: 12.6 µM [inhibitor, single point].
In the case of `Cc1ccc(NC(=O)C2CCN(C(=O)N3CCOc4ccccc43)CC2)cc1`, the Potency is reported as inconclusive: 12.6 µM [inhibitor, single point].
With `Cc1ccc2c(C)ccc(O)c2n1` the Potency was inconclusive: 22.4 µM [inhibitor, single point].
With `COC1(OC)C(/C=C/c2ccc(C)cc2)C(C#N)(C#N)C1(OC)OC` (configuration not stated) the Potency was inconclusive: 6.31 µM [inhibitor, partial curve, poor fit].
`CCC1CCCCN1S(=O)(=O)c1ccc(C(=O)N(CCCN(C)C)c2nc3cc4c(cc3s2)OCO4)cc1` (configuration not stated) was tested, and the Potency was inconclusive: 5.01 µM [inhibitor, partial curve].
With `CNC(=O)NC(=O)C(NC1CCCc2ccccc21)c1ccccc1` (configuration not stated) the Potency was inconclusive: 10 µM [inhibitor, partial curve].
`COc1ccccc1OCCn1c(C(C)O)nc2ccccc21` (configuration not stated) was tested, and the Potency was inconclusive: 28.2 µM [inhibitor, single point].
`O=C1/C(=C\c2cccc([N+](=O)[O-])c2O)SC(=S)N1Cc1ccccc1` was tested, and the Potency was inconclusive: 3.98 µM [inhibitor, partial curve, poor fit].
With `Cn1cnc(S(=O)(=O)N2CCN(C(c3ccc(F)cc3)c3ccc(F)cc3)CC2)c1` the Potency was inconclusive: 10 µM [inhibitor, partial curve, poor fit].
With `COc1ccc(-c2ccc3c(c2)C2CC3CCN2CCC#N)cc1` (configuration not stated) the Potency was “inactive”.
`O=C1/C(=C/c2cccs2)SC(=S)N1C1CCS(=O)(=O)C1` (configuration not stated) was tested, and the Potency was inconclusive: 8.91 µM [inhibitor, partial curve, poor fit].
With `Oc1cccc(CN2CCN(c3ncc(Cc4ccccc4)cn3)CC2)c1` the Potency was inconclusive: 10 µM [inhibitor, single point].
In the case of `N/C(=N\OC(=O)COc1ccccc1)c1ccccn1`, the Potency is reported as “inactive”.
For `Cc1[nH]nc(-c2ccc(OCc3cnn(-c4ccccc4)c3)cc2O)c1Oc1ccc(Cl)cc1`, the Potency was inconclusive: 4.47 µM [inhibitor, full curve, poor fit].
